# PubChem BioAssay AID2675 (National Center for Advancing Translational Sciences (NCATS), 2010)
# The whole screen tested about 280,000 compounds, of which about 100 (0.036%) were called active. Inconclusive results, whose numbers are uncertain, are shown with a selection of clear calls. Calls follow the shape of the dose curve; as a rule, active = well fitted inhibition curve with a large enough effect in the signal ratio, with a control signal flat (not every such curve was filed as active); inconclusive = small, poorly fitted or top-dose-only effect, or effect the other way, or a change in a side signal; inactive = no such curve, though single readings can be large or run the other way; the % refers to the signal ratio. Where the call is inconclusive, the potency comes from a doubtful curve fit. “Side channel” marks fits to a control or component signal instead of the main read-out.
# Target: Muscleblind-like protein 1 (Homo sapiens) (UniProt Q9NR56)
# Assay: qHTS Assay for Inhibitors of MBNL1-poly(CUG) RNA binding
# Details: TR-FRET MBNL1-His/biotin-(CUG)12 binding, 665/545 ratio; series mostly up to 57.5 µM
# Method in brief: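 Compounds (final 92 nM to 58 uM) are added to His-tagged MBNL1 and biotin-(CUG)12, then terbium anti-His antibody and streptavidin-XL665 (5 nM final). After 60 min at room temperature, the 665/545 nm ratio is read.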
# Potency is read from the fitted curve at half-maximal effect; tags tell the direction and shape of the fitted curve or compound fluorescence and quenching.
# UniProt Q9NR56, sequence (Q9NR56 whole entry, looked up): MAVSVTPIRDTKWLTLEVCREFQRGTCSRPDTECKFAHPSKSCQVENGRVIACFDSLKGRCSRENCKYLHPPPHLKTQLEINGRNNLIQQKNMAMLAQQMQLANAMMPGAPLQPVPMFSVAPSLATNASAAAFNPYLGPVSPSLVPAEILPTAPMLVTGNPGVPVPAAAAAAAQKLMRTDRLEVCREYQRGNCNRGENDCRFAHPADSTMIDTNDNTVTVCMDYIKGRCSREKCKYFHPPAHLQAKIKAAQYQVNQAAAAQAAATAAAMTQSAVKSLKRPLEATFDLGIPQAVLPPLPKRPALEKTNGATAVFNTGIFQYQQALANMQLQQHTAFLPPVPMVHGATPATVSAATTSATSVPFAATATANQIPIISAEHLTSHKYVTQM
row,Compound,Potency
1,Cc1ccc(C(=O)N/C(=C\c2ccc(-c3ccc(Cl)cc3)o2)C(=O)NCCCN(C)C)cc1,"inconclusive: 28.2 µM [quencher, side channel, partial curve]"
2,CC(=O)N[C@@H](C)C(=O)OC(C)C(=O)Nc1cccc([N+](=O)[O-])c1 (stereo not given in full),"inconclusive: 11.2 µM [quencher, side channel, partial curve]"
3,Cc1nc2ccc(NC(=S)NC3CCCCC3)cc2nc1C,"inconclusive: 20 µM [quencher, side channel, single point]"
4,CCNC(=O)CSc1nnc(-c2ccccc2Br)n1-c1cccc(C(F)(F)F)c1,"inconclusive: 0.112 µM [fluorescent, side channel, full curve, poor fit]"
5,Cc1ccc(NC(=O)CN(c2ccc(C)cc2)S(=O)(=O)c2cccc3nonc23)cc1,"inconclusive: 20 µM [quencher, side channel, partial curve]"
6,O=[N+]([O-])c1cccc(NN=Nc2ccccc2)c1,"inconclusive: 25.1 µM [quencher, side channel, partial curve]"
7,O=C(COC(=O)C1CCCN1C(=O)c1cccs1)c1ccccc1 (stereo not given),inactive
8,CC(=O)Nc1cccc(Nc2nc(-c3cccs3)nc3ccccc23)c1,"inconclusive: 35.5 µM [quencher, side channel, single point]"
9,CN(C(=O)c1ccc(Oc2ccc([N+](=O)[O-])cc2)cc1)C1CCCCC1,"inconclusive: 22.4 µM [quencher, partial curve]"
10,O=C(c1cc(C(=O)N2CCCC2)cc([N+](=O)[O-])c1)N1CCCC1,"inconclusive: 14.1 µM [quencher, side channel, partial curve]"
11,COc1ccc(OC)c(/C=C2\SC(N3CCCCC3)=NC2=O)c1,"inconclusive: 25.1 µM [quencher, side channel, single point]"
12,CCc1cccc(NC2c3ccccc3C(=O)N2c2cccnc2)c1 (stereo not given),"inconclusive: 1.78 µM [quencher, side channel, partial curve]"
13,O=c1c2ccccc2nc2ccc(NCc3cccs3)nn12,"inconclusive: 11.2 µM [quencher, side channel, partial curve]"
14,Cc1ccc(C)c(N2CCN(CCCNC(=O)Cn3cc4c(n3)CCC(C)C4)CC2)c1 (stereo not given),"inconclusive: 0.708 µM [fluorescent, side channel, full curve, poor fit]"
15,CC(NC(=O)Nc1cccc([N+](=O)[O-])c1)c1ccc2c(c1)OCO2 (stereo not given),"inconclusive: 7.94 µM [quencher, side channel, partial curve]"
